# Laboratory results reported in PubChem BioAssay AID686978 (National Center for Advancing Translational Sciences (NCATS), 2013).
# Values joined by “and” are separate entries in the source; they are usually repeats but may differ in a detail not shown here. Identical values can stand only once. Out of some 420,000 compounds screened, about 64,000 (15%) were called active. The inconclusive results got no clear call from the source; some entries with a clear call stand among them for comparison. Calls come from the whole dose curve; as a rule, active = well fitted inhibition curve with a large enough effect; inconclusive = small, poorly fitted or top-dose-only effect; inactive = flat fitted curve, though single readings scatter. Potencies of inconclusive entries are doubtful fits and often do not repeat.
# Experiment: qHTS for Inhibitors of human tyrosyl-DNA phosphodiesterase 1 (TDP1): qHTS in cells in absence of CPT; note: nearly all actives have a fitted effect of over 55% in size
# Conditions: DT40 Tdp1-/- hTDP1 cells, no CPT, ATP luminescence, 48 h; activity change, negative = growth inhibition: at 46.2 µM (top of the series) unless noted
# How it was run: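 Growth kinetics read by CellTiter-Glo luminescence after ≥48 hr at 37 °C. Cells: DT40 Tdp1-/- stably carrying human TDP1, 400 per well, compound exposure in the absence of CPT (DMSO vehicle).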
# % is set by controls: 0 for no effect and ±100 for the full control effect; potency is the fitted concentration of half-maximal effect; tags give direction and shape of the fitted curve.
SMILES,Potency,"activity change, negative = growth inhibition"
CCOC(=O)c1cccc(NC(=O)Nc2c(C)n(C)n(-c3ccccc3)c2=O)c1,inactive,
O=c1[nH]c(C2CCCN(S(=O)(=O)c3ccccc3)C2)nc2c1nnn2Cc1ccccc1Br (stereo not given),"inconclusive: 29.1 µM [inhibitor, single point] and inconclusive: 18.4 µM [inhibitor, single point]",
O=C(NNS(=O)(=O)c1ccc(F)cc1F)C1Cc2c(ccc3ccccc23)O1 (stereo not given),active: 18.4 µM,
O=C1CC(c2ccc(Cl)c([N+](=O)[O-])c2)c2ccc3ccccc3c2N1 (stereo not given),"inconclusive: 23.1 µM [inhibitor, single point]",
Cc1ccc(C(=O)NCc2ccncc2)cc1S(=O)(=O)N1CCOCC1,inactive,
Cc1nn(C)c(C(=O)NNC(=S)NCc2ccco2)c1Br,"inconclusive: 20.6 µM [inhibitor, single point]",
COc1ccc(N2CCN(C(=O)c3ccccc3)CC2)c([N+](=O)[O-])c1,inactive,
COC(=O)c1cc(Nc2cc(C)c3c(O)cccc3n2)cc(C(=O)OC)c1,active: 13 µM,
COc1cccc(C(=O)CSc2nnc(CNc3nc(-c4ccccc4)cs3)n2C)c1,"inconclusive: 25.9 µM [inhibitor, single point]",
C=CCNC(=O)c1ccc2c3n(nc2c1)-c1ccc(Cl)cc1CO3,"inconclusive: 29.1 µM [inhibitor, single point]",
Cc1nn(CCC(=O)Nc2cccc(C#N)c2)c(C)c1S(=O)(=O)N1CCCCC1,,inconclusive: -31.8% [inhibitor]
CC(C)[C@H](NC(=O)C1CC(=O)N(c2ccc3c(c2)OCCO3)C1)C(=O)NC1CCCC1 (stereo not given in full),inactive,
COc1ccc(-c2nc3ccccc3c(=O)[nH]2)cc1,inactive,
COc1cccc(C(=O)Nc2nnc(S(=O)(=O)N3CCCc4ccccc43)s2)c1,"inconclusive: 29.1 µM [inhibitor, single point]",
CC(=O)NC(Cc1cccc(C)c1)C(=O)NC1CCN(C(=O)c2ccc([N+](=O)[O-])cc2)CC1 (stereo not given),inactive,
O=c1[nH]cnc2c1ncn2[C@H]1C[C@H](O)[C@@H](CO)O1,"inconclusive: 1.78 µM [inhibitor, full curve]",
CC(C)Cc1ccc(CN2CCCC(NC(=O)CCN3CCCCC3=O)C2)cc1 (stereo not given),"inconclusive: 32.6 µM [inhibitor, single point]",
Cc1ccc(C)c(CN2C(=O)c3ccccc3S(=O)c3ccc(C(=O)N4CCCCC4)cc32)c1 (stereo not given),active: 16.4 µM,
COc1ccc(N2CCN(C(=O)COc3ccc(Cl)cc3Cl)CC2)cc1,"inconclusive: 23.1 µM [inhibitor, partial curve]",
CC(=O)c1ccc(-c2ccc(C(=O)NCC3CCCO3)o2)cc1 (stereo not given),inactive,
O=c1c(Cc2ccc(F)cc2)c(O)ccn1CC1CCCO1 (stereo not given),"inconclusive: 29.1 µM [inhibitor, single point]",
CC(C)(C)n1nnnc1C(c1cccc(C#N)c1)N1CCCc2ccccc21 (stereo not given),"inconclusive: 29.1 µM [inhibitor, single point]",
COc1ccc(C(=O)CSc2nc(=O)n3ccc(C)cc3n2)cc1,"inconclusive: 29.1 µM [inhibitor, single point]",
CCS(=O)(=O)NCCc1csc2nc(-c3ccc(OC)cc3)nn12,"inconclusive: 14.6 µM [inhibitor, partial curve]",

SMILES,Potency,"activity change, negative = growth inhibition"
Cc1cc(Nc2cccc(Cl)c2)nc(N2CCOCC2)n1,"inconclusive: 25.9 µM [inhibitor, single point]",
COc1ccc(OC)c(S(=O)(=O)NCCS(=O)(=O)N2CCN(c3ccccc3F)CC2)c1,"inconclusive: 20.6 µM [inhibitor, single point]",
Cc1noc(C)c1C(=O)Nc1nc(C23CC4CC(CC(C4)C2)C3)cs1,active: 18.4 µM,
CCc1cnc2c(c1SCc1cc(OC)cc(OC)c1)c(=O)n(C)c(=O)n2C,"inconclusive: 3.66 µM [inhibitor, full curve]",
CCCCC1(c2ccc(F)cc2)NC(=O)N(CC(=O)Nc2ccc(N3CCOCC3)cc2)C1=O (stereo not given),inactive,
CSc1ncc(C(=O)NCc2cccc(C)c2)c(-c2ccccc2)n1,"inconclusive: 25.9 µM [inhibitor, single point]",
Cc1ccc2c(CN3CCCCC3C)cc(=O)oc2c1C (stereo not given),"inconclusive: 20.6 µM [inhibitor, single point]",
CCOC(=O)C1=C(C)NC2=C(C(=O)C(C(=O)OCC)C(c3cccc(OC)c3)C2)C1c1ccccn1 (stereo not given),"inconclusive: 25.9 µM [inhibitor, single point]",
Cc1ccc(-c2nc(SCC(N)=O)c(C#N)c3c2CCCC3)cc1,inactive,
CSc1nc(NC2CCCC2)c([N+](=O)[O-])c(NC2CCCC2)n1,inactive,
CC(Oc1ccc(Cl)cc1Cl)C(=O)NC(Cc1ccccc1)C(=O)O (stereo not given),inactive,
O=C(/C=C/c1cc2ccccc2o1)c1ccccc1O,"inconclusive: 18.4 µM [inhibitor, single point]",
Cc1noc(-c2ccccc2OC(=O)c2ccccc2)n1,inactive,
O=C1N[C@@H](Cc2c[nH]c3ccccc23)COC(=O)[C@H](Cc2ccc(F)cc2)C/C=C\C[C@H]1CC(=O)N(CCO)Cc1ccccc1,active: 16.4 µM,
COc1ccc(-c2ccc(C(=O)Nc3cccc(NS(C)(=O)=O)c3)c3occc23)c(C)c1,"inconclusive: 16.4 µM [inhibitor, single point]",
COc1ccc(C2CC(C(F)(F)F)n3ncc(C(=O)Nc4cccc(O)c4)c3N2)cc1OC (stereo not given),,inconclusive: -35.2% [inhibitor]
CC(C)CN(C(=O)COC(=O)c1ccccc1SCC(=O)N1CCCC1)C1CCS(=O)(=O)C1 (stereo not given),inactive,
Cc1onc(-c2c(Cl)cccc2Cl)c1C(=O)N1CCSCC1,"inconclusive: 20.6 µM [inhibitor, single point]",
O=C(CCCC(=O)N(c1ccc2c(c1)OCCO2)C(C(=O)NC1CCCCC1)c1ccc(Cl)cc1)Nc1ccccn1 (stereo not given),"inconclusive: 29.1 µM [inhibitor, single point]",
CC1CN(C(=O)C2CC(=O)N(c3ccc(Cl)cc3)C2)CC(C)O1 (stereo not given),inactive,
Cc1ccc(NC(=O)CSc2nc3ccccc3c(=O)n2CCCC(=O)NCCCN2CCOCC2)cc1,inactive,
Cc1ccc(-c2nc(N)s[n+]2-c2ccccc2)cc1,"inconclusive: 20.6 µM [inhibitor, single point]",
O=S(=O)(NCC(c1ccccc1)N1CCc2ccccc21)c1ccc(Cl)cc1 (stereo not given),"inconclusive: 23.1 µM [inhibitor, single point]",
C=CCc1ccccc1OCCSc1nc(-c2ccccc2F)nc2cc(=O)[nH]n12,active: 20.6 µM,

SMILES,Potency,"activity change, negative = growth inhibition"
CCOC(=O)c1cnc(-n2nc(C)cc2C)nc1Nc1ccc(OC)cc1,active: 11.6 µM,
Cc1cc(CNC(=O)c2cnn(-c3nccc(-c4cc(C)sc4C)n3)c2C2CC2)on1,"inconclusive: 29.1 µM [inhibitor, single point]",
O=C1c2ccccc2NC(c2cn[nH]c2-c2ccccc2)N1O (stereo not given),"inconclusive: 16.4 µM [inhibitor, single point]",
CSCCC(C(=O)N1CC2(C)CC1CC(C)(C)C2)N1C(=O)c2ccccc2C1=O (stereo not given),"inconclusive: 29.1 µM [inhibitor, single point]",
Cc1cccc(N2CCN(c3nc4ccccc4c4nnc(C)n34)CC2)c1C,active: 11.6 µM,
COC(=O)c1ccc(NC(=O)CC2C(=O)N(c3ccccc3)C(=O)N2Cc2cccs2)cc1 (stereo not given),active: 18.4 µM,
CCC(=O)NC(Nc1nc(C)cs1)(C(=O)OC)C(F)(F)F (stereo not given),inactive,
N#CC1=C(N)N(c2ccc(F)cc2)C(=O)C1,inactive,
CCc1nc(C)ccc1OCC(=O)N1CCc2c([nH]c3ccccc23)C1c1ccccn1 (stereo not given),active: 23.1 µM,
O=C(NCCSCc1ccccc1)c1cc(S(=O)(=O)N2CCOCC2)ccc1F,"inconclusive: 25.9 µM [inhibitor, single point]",
Cc1ccc(C)c(NC(=O)c2cc(C)nc3ccccc23)c1,"inconclusive: 14.6 µM [inhibitor, partial curve]",
O=S1(=O)CC(N2CCCC2)CN1C1CCCCC1 (stereo not given),inactive,
COc1ccc(C(=O)c2cn(Cc3ccccc3OC)c3cc4c(cc3c2=O)OCO4)cc1,"inconclusive: 14.6 µM [inhibitor, partial curve]",
O=C(CNC(=O)c1ccco1)OCC(=O)c1cccc2ccccc12,"inconclusive: 18.4 µM [inhibitor, single point]",
Cc1cc(C)cc(-n2ccnc2SCC(=O)Nc2ccccc2F)c1,active: 16.4 µM,
CN1CCOC1c1ccc(C2OCCN2C)cc1 (stereo not given),"inconclusive: 29.1 µM [inhibitor, single point]",
COC(=O)c1ccc(C(=O)OC)c(NC(=O)CSCc2ccc(Br)cc2)c1,"inconclusive: 25.9 µM [inhibitor, partial curve]",
COc1ccc(/C=c2\s/c(=C\C(=O)C(C)(C)C)[nH]c2=O)cc1O,"inconclusive: 20.6 µM [inhibitor, single point]",
Cc1cn2c(=O)c3ccccc3nc2n2c(=O)c3ccccc3nc12,,inactive: 2.06% [at 9.04 µM]
c1cncc(-c2noc(-c3cccc4ccccc34)n2)c1,"inconclusive: 32.6 µM [inhibitor, single point]",
O=C(/C=C/c1ccc(S(=O)(=O)N2CCOCC2)cc1)NC(=S)Nc1ccc(N2CCOCC2)cc1,"inconclusive: 16.4 µM [inhibitor, single point]",
O=C(NC1CCCC1)c1cc2nc(-c3ccco3)cc(C(F)(F)F)n2n1,"inconclusive: 25.9 µM [inhibitor, single point]",
